From PubChem BioAssay AID485364 (National Center for Advancing Translational Sciences (NCATS), 2010)
Out of some 360,000 compounds screened, about 11,000 (3.1%) were called active. This list was built around the results that the source calls inconclusive (neither active nor inactive); the mix of calls is not that of the screen. Calls follow the shape of the dose curve; as a rule, active = well fitted inhibition curve with a large enough effect; inconclusive = small, poorly fitted or top-dose-only effect; inactive = no such curve, though single readings can be large or run the other way. No potency is given beside an inconclusive call; the fits are too rough.

biological target: Schistosoma mansoni thioredoxin glutathione reductase (TGR) (UniProt Q962Y6); assay: qHTS Assay for the Inhibitors of Schistosoma Mansoni Peroxiredoxins; conditions: purified TGR, DTNB reduction, TNB absorbance 405 nm; activity change, negative = inhibition: at 114 µM (top of the series) unless noted; also: nearly all actives have a fitted effect of over 60% in size
Outline: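 First, TGR (20 nM dispensed) and NADPH were mixed with compound. Second, a 15 min room-temperature incubation followed. Third, further NADPH and then DTNB were added to start the reaction. Finally, TNB absorbance was monitored kinetically.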
% is scaled to controls: 0 for no effect and ±100 for the full control effect; potency is read from the fitted curve at half-maximal effect; tags tell the direction and shape of the fitted curve.

| SMILES | activity change, negative = inhibition | Potency |
| --- | --- | --- |
| Cc1ccc(Nc2nnc(-c3ccc(C)c(S(=O)(=O)N4CCN(C)CC4)c3)c3ccccc23)c(C)c1 | inactive: -1.43% |  |
| Cn1cccc1Cc1nnc(SCC(=O)Nc2ccc(F)cc2F)n1-c1ccc(F)cc1 |  | inconclusive [inhibitor, partial curve] |
| COc1ccc(-n2c(=O)cc(N3CCCCCC3)[nH]c2=O)cc1 | inactive: 0.942% |  |
| CCC1CCCCN1CC(=O)c1c(C)[nH]c2cc(C)ccc12 (stereo not drawn) |  | active: 44.7 µM |
| Cc1cc(C)c(Cn2c(CCNC(=O)c3ccco3)nc3ccccc32)c(C)c1 | inactive: -0.137% |  |
| CN1CCCN(S(=O)(=O)c2ccccc2)c2nc3ccccc3nc21 |  | inconclusive [inhibitor, partial curve] |
| CC(C)(C)C(=O)O/N=C(\N)c1ccc([N+](=O)[O-])s1 | inactive: -11.9% |  |
| COCCCNC(=O)CCn1c(=O)c2ccccc2n(CC(=O)Nc2c(C)cc(C)cc2C)c1=O | inactive: -1.62% |  |
| COc1ccc2c(=O)c3c(=O)n(Cc4ccco4)c(-c4cc(OC)c(OC)c(OC)c4)nc3oc2c1 |  | inconclusive [inhibitor, partial curve] |
| O=C(COC(=O)c1cc(S(=O)(=O)N2CCOCC2)ccc1F)NCc1ccco1 |  | active: 44.7 µM |
| O=C(CCl)Nc1c(C(=O)Nc2ccc3c(c2)OCCO3)oc2ccccc12 |  | inconclusive [inhibitor, single point] |
| O=C(/C=C/c1ccccc1)NC(=S)NNC(=O)c1ccco1 | inactive: -3.12% |  |
| Cc1ccc(CNC(=O)c2nc(SCc3ccc(C)cc3)ncc2Cl)cc1 |  | inconclusive [inhibitor, single point] |
| Cc1nn(CC(=O)N(C)C2(C#N)CCCCC2)c(C)c1[N+](=O)[O-] | inactive: -16.7% |  |
| COCCNc1nc2nonc2nc1N1CCCC1c1nccs1 (stereo not drawn) |  | inconclusive [inhibitor, partial curve] |
| COc1ccc(CN2CCNC(=O)C2CC(=O)NCc2csc(C)n2)c(F)c1 (stereo not drawn) |  | inconclusive [inhibitor, partial curve] |
| Nn1c(COc2ccccc2F)nnc1SCC(=O)NC1CCCCC1 | inactive: -16.3% |  |
| CC(=O)C1=C(O)CC(c2ccccc2)CC1=NCCc1c(C)[nH]c2ccc(C)cc12 (stereo not drawn) | inactive: -1.5% |  |
| CCN1C(=NCC2CC2)N[C@@H](c2cccc(C(F)(F)F)c2)C(C(=O)OC)=C1C |  | inconclusive [inhibitor, partial curve, poor fit] |
| Cc1ccc2cc(C(c3nnnn3Cc3ccccc3)N3CCc4ccccc43)c(=O)[nH]c2c1C (stereo not drawn) |  | inconclusive [inhibitor, partial curve] |
| COc1cc(Cl)ccc1OCc1cc(C(=O)NCC(C)c2ccccc2)no1 (stereo not drawn) | inactive: 4.99% |  |
| Cn1c(CNC(=O)c2ccco2)nnc1SCC(=O)c1ccccc1 | inactive: -15.7% |  |
| O=C(CN1CCCCCC1)N1c2ccccc2Sc2ccccc21 |  | inconclusive [inhibitor, single point] |
| Cc1cccc(-n2c(O)c(/C=N/NC(=O)c3ccncc3)c(=O)[nH]c2=O)c1 |  | inconclusive [inhibitor, partial curve] |
| Cc1ccc(S(=O)(=O)N2CCC(C(=O)C3C(=O)CC(C)(C)CC3=O)CC2)cc1 | inactive: 8.05% |  |

| SMILES | activity change, negative = inhibition | Potency |
| --- | --- | --- |
| NC(=O)C1CCN(C(=O)CN2CCc3ccccc32)CC1 |  | inconclusive [inhibitor, partial curve] |
| O=S(=O)(Nc1nc2ccccc2nc1NCc1ccco1)c1cccs1 | inconclusive: -46% [inhibitor] |  |
| O=C(Cn1ccc(C(F)(F)F)n1)Nc1ccc(S(=O)(=O)NCc2ccco2)cc1 |  | active: 44.7 µM |
| CCOC(=O)c1c(C)oc2c1c1c(c3ccccc32)OCN(Cc2cccnc2)C1 |  | active: 0.355 µM |
| Cc1ccc(N(CC#N)C(=O)CS(=O)(=O)c2cccc([N+](=O)[O-])c2)cc1 |  | inconclusive [inhibitor, partial curve] |
| COc1ccc(N2CSC3=C(C#N)C(c4cc(OC)ccc4OC)CC(=O)N3C2)c(OC)c1 (stereo not drawn) |  | inconclusive [inhibitor, full curve] |
| O=C(CCS(=O)(=O)c1cccc2nsnc12)N1CCN(Cc2ccc3c(c2)OCO3)CC1 |  | inconclusive [inhibitor, partial curve] |
| Cc1ccc(-c2nc3c(c(SCC(=O)N4CCOCC4)n2)Cc2c(CO)cnc(C)c2O3)cc1 |  | active: 35.5 µM |
| Brc1ccc(-c2c[n+]3c(n2-c2ccccc2)SCC3)cc1 |  | inconclusive [inhibitor, partial curve, poor fit] |
| O=C(N/N=C/c1cccc(O)c1)c1cc(-c2ccc3c(c2)OCO3)n[nH]1 | inactive: 1.15% |  |
| Oc1ccc(C[C@H]2CNCCN2CCc2cccc3ccccc23)cc1 | inactive: -15.2% |  |
| O=C(Nc1ccc(-c2nc3ncccc3o2)cc1)c1ccco1 |  | active: 20 µM |
| Cc1cc(C)c2c(c1)/C(=c1/sc3n(c1=O)CN(c1ccccc1)CN=3)C(=O)N2 | inactive: 2.33% |  |
| CCCCn1c(O)c(C(C)=Nc2ccc(OCC)cc2)c(=O)[nH]c1=O | inactive: 7.64% |  |
| Cc1nn(C)c2c1c(C(F)(F)F)cc(=O)n2Cc1cccc(Br)c1 | inactive: 8.7% |  |
| COc1ccc(C(NC(=O)/C=C/c2ccco2)c2ccc(OC)c(OC)c2)cc1 (stereo not drawn) |  | active: 25.1 µM |
| COc1ccc(NC(=O)Nc2sc3nc4n(c(=O)c3c2C)CCC(C)CC4)cc1OC (stereo not drawn) |  | inconclusive [inhibitor, single point] |
| COCCNC(=S)N1CCN(C/C=C/c2ccccc2)CC1 | inactive: -4.7% |  |
| CCOc1ccccc1CN1CCN(Cc2cc(=O)c3ccccc3[nH]2)CC1CCO (stereo not drawn) |  | inconclusive [inhibitor, partial curve] |
| CC(=O)Nc1ccccc1C(=O)OCc1ccc(C(=O)c2ccccc2)cc1 | inactive: 18.6% |  |
| C#CCOCCOCCOCCNc1nc(N2CCN(C(=O)[C@H](Cc3ccc(O)cc3)n3cc([C@@H](N)CC(C)C)nn3)CC2)nc(N2CCN(C(=O)[C@H](Cc3ccc(O)cc3)n3cc([C@@H](N)CC(C)C)nn3)CC2)n1 |  | active: 17.8 µM |
| Cc1oc(-c2ccc(Cl)cc2)nc1CS(=O)CC(=O)NCCN1CCCCCC1 (stereo not drawn) |  | inconclusive [inhibitor, partial curve] |
| O=C(NCCCNCc1ccccc1)/C(=N\O)c1ccccc1 |  | inconclusive [inhibitor, full curve, poor fit] |
| Cc1noc(C)c1CS(=O)(=O)c1ccc(Br)cc1 |  | inconclusive [inhibitor, partial curve, poor fit] |
| COc1ccc(C(=O)COC(=O)c2cncc(Br)c2)cc1 | inactive: -14.3% |  |

| SMILES | activity change, negative = inhibition | Potency |
| --- | --- | --- |
| O=C(O)c1cc(-c2ccc(/C=C3\NC(=O)N(c4ccc(Cl)cc4)C3=O)o2)ccc1Cl |  | inconclusive [inhibitor, partial curve] |
| Cc1ccc(NC(=O)c2cc(-c3ccc(C)o3)nc3ccccc23)cc1 |  | active: 25.1 µM |
| COC(=O)c1ccc(C(=O)NC2CCCc3c2cnn3-c2ccccc2F)nc1 (stereo not drawn) | inactive: -11.7% |  |
| O=c1[nH]c2ccc(Cl)cc2c(-c2ccccc2)c1CN1CCOCC1 |  | inconclusive [inhibitor, full curve] |
| Cc1ccc(SCC(=O)N2N=CCC2c2ccccc2)cc1 (stereo not drawn) |  | inconclusive [inhibitor, partial curve] |
| Cc1nc2nc(N)nn2c(C)c1C/C=C/c1ccccc1 |  | active: 15.8 µM |
| CCOC(=O)c1c(-c2ccccc2)csc1NC(=O)c1nc(S(=O)(=O)CC)ncc1Cl |  | active: 2 µM |
| O=C(O)c1ccccc1C(=O)Nc1c(-c2ccccc2)nc2ccccn12 | inactive: 0% |  |
| COc1ccc(Br)cc1CN(C)C(=O)Cc1ccc(OC)c(S(=O)(=O)N2CCOCC2)c1 | inactive: -1.9% |  |
| CCc1[nH]c(=O)[nH]c1C(C)S(=O)(=O)c1ccc(C)cc1 (stereo not drawn) |  | active: 0.282 µM |
| O=C(COC(=O)c1cc(S(=O)(=O)N2CCCCC2)ccc1Cl)NCc1ccco1 |  | inconclusive [inhibitor, full curve, poor fit] |
| O=C(N/N=C/c1cccnc1)c1cc(-c2ccccc2OCc2ccccc2)n[nH]1 | inactive: 2.68% |  |
| COc1ccccc1-c1cc(C(F)(F)F)nc(S(=O)(=O)CCCC(=O)Nc2cc(OC)c(OC)c(OC)c2)n1 |  | inconclusive [inhibitor, full curve] |
| CCCN(CCC)CCNC(=O)c1cn(C)c(=O)c2c1c1ccccc1n2C |  | inconclusive [inhibitor, partial curve, poor fit] |
| COc1ccc(OC)c(N(CC(=O)NN=C2CCN(C)CC2)S(=O)(=O)c2ccccc2)c1 | inactive: -0.105% |  |
| CC(=O)OC(C(=O)NCc1ccco1)c1cccnc1 (stereo not drawn) |  | inconclusive [inhibitor, partial curve] |
| O=C(Nc1ccc2c(c1)OCO2)c1ccccn1 |  | inconclusive [inhibitor, partial curve] |
| C#CCOCCOCCOCCNc1nc(N2CCOCC2)nc(N2CCN(C(=O)CCCCCCCCCCNC(=O)[C@@H]([C@H](C)O)n3cc(C)nn3)CC2)n1 |  | inconclusive [inhibitor, partial curve] |
| CN(C)S(=O)(=O)c1cccc(NC(=O)c2cccc(NS(=O)(=O)c3ccccc3)c2)c1 | inactive: -8.09% |  |
| COC(=O)c1ccc(/C=N/Nc2nc(N3CCCCC3)nc(N3CCCCC3)n2)cc1 |  | inconclusive [inhibitor, single point] |
| Cc1cc(N2CCOCC2)nc2ccccc12 | inactive: 4.7% |  |
| Cc1cccn2c(=O)c(C=O)c(Cl)nc12 |  | active: 6.31 µM |
| COc1ccc(-c2cc(C(F)F)n3ncc(C(=O)N4CCN5CCCC5C4)c3n2)cc1 (stereo not drawn) |  | inconclusive [inhibitor, partial curve] |
